Experimental data from PubChem BioAssay AID1345082 (National Center for Advancing Translational Sciences (NCATS), 2018).
Hit rate of the full screen: of about 94,000 compounds, about 4,000 (4.3%) were called active. Inconclusive results, whose numbers are uncertain, are shown with a selection of clear calls. Calls come from the whole dose curve; as a rule, active = well fitted inhibition curve with a large enough effect; inconclusive = small, poorly fitted or top-dose-only effect; inactive = no such curve, though single readings can be large or run the other way. Potencies beside an inconclusive call are fits to weak or partial responses and may not hold up.

Assay: Cytotoxic Profiling in NIH 3T3 Cell Line of Diverse Libraries Using Quantitative High-Throughput Screening; note: nearly all actives have a fitted effect of over 55% in size
Conditions: NIH 3T3 viability, CellTiter-Glo ATP luminescence, 48-72 h; series mostly up to 96.7 µM
How it was run: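 Cytotoxicity is measured as loss of cellular ATP: NIH 3T3 cells (400/well) are exposed to compound for 48 or 72 hr at 37 °C, then CellTiter-Glo luminescence is imaged after 10 min at room temperature.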
Potency is the fitted concentration of half-maximal effect; tags give direction and shape of the fitted curve.

Structure (SMILES)	Potency
O=c1c2nc(NCc3cccs3)ccc2ncn1Cc1ccccc1	inconclusive: 89.1 µM [inhibitor, partial curve, poor fit]
COc1cccc(-c2ccc(C(=O)NCCNC(=O)c3ccccc3)cc2)c1	inconclusive: 35.5 µM [inhibitor, partial curve, poor fit]
CC(=O)Nc1cccc(C(=O)N2CCCN(c3cc(-c4ccc(Br)cc4)[nH]n3)CC2)c1	inconclusive: 50.1 µM [inhibitor, partial curve, poor fit]
O=C(NCCc1ccc(Cl)cc1)c1nc2sccn2c1-c1ccncc1	inactive
CCc1c(C)nc(N)nc1NCc1noc(COC)n1	inconclusive: 89.1 µM [inhibitor, single point]
CN(CCNC(=O)c1c(-c2ccccc2)cc(=O)n2c1CCC2)C1CCCCC1	inactive
O=C(O)c1ccc2c(c1)CC(=O)N2Cc1cccc(F)c1	inconclusive: 70.8 µM [inhibitor, single point]
COc1ccc(-c2noc(CC3CCN(C(=O)C4(c5ccc(OC)cc5)CC4)CC3)n2)cc1	inconclusive: 79.4 µM [inhibitor, partial curve, poor fit]
Cc1ccc(C(=O)N2CCC3(CC2)N=C(c2ccc(Cl)cc2)NO3)s1	inconclusive: 50.1 µM [inhibitor, partial curve, poor fit]
Cc1ccc(NC(=O)Cn2c(N(C)Cc3ccccc3)nc(C)cc2=O)c(Cl)c1	inconclusive: 11.2 µM [inhibitor, full curve, poor fit]
O=C(c1ccc2nnc(CC3CC3)n2c1)N1CCOCC1	inactive
CCc1ccc(CN2C[C@@H]3C(=O)N(Cc4ccc5c(c4)OCO5)C(=O)[C@@H]3C2)cc1	inconclusive: 50.1 µM [inhibitor, partial curve, poor fit]
COc1ccccc1-c1cnc(Nc2ccc(CN3CCN(C)CC3)cc2)c2c1CCO2	active: 25.1 µM
COc1ccc(Nc2nccc3c(=O)cc(-c4cn[nH]c4)oc23)cc1OC	inconclusive: 56.2 µM [inhibitor, partial curve, poor fit]
CN(C)C(=O)c1nc(C(C)(C)C)c2cnccn12	inactive
COC(=O)[C@@H]1Cc2ncn(Cc3ccc(OC)cc3)c2CN1C(=O)COc1ccccc1	inconclusive: 89.1 µM [inhibitor, partial curve, poor fit]
Cc1cccc(-n2nc(C)c(CCC(=O)N3CCOCC3)c2Oc2ccc(F)cc2F)c1	inconclusive: 50.1 µM [inhibitor, partial curve, poor fit]
COc1ccc(-n2c(CN)n[nH]c2=O)cc1OC	inactive
CN(C)c1ccc(C(=O)N2CCC(Cc3nc(-c4cnccn4)no3)CC2)cc1	inactive
CN1C[C@@H](NC(=O)c2ccccc2)C[C@H]1c1nc(-c2ccc3c(c2)OCO3)no1	inconclusive: 89.1 µM [inhibitor, partial curve, poor fit]
O=C1NC2(CCN(Cc3ccccc3)C2)COc2ccccc21 (centres undefined)	inconclusive: 50.1 µM [inhibitor, partial curve, poor fit]
CCC(=O)Nc1ccc(OCC(=O)NCc2ccccc2OC(C)CC)cc1 (centres undefined)	inactive

Structure (SMILES)	Potency
CCc1nc(NC(CCn2cncn2)c2ccccc2)c2cnn(C)c2n1 (centres undefined)	inactive
CNC(=O)N1CCC(C2CCN(S(=O)(=O)c3ccc(C)c(F)c3)C2)CC1 (centres undefined)	inconclusive: 39.8 µM [inhibitor, partial curve, poor fit]
COc1ccccc1C(=O)N1CCCc2nc(C)nc(-c3ccc(O)cc3)c2C1	inconclusive: 44.7 µM [inhibitor, partial curve, poor fit]
O=C(NCc1ccc(F)cc1)c1ccc2oc(-c3cccnc3)nc2c1	inactive
COc1ccc(C(=O)N2CCC3(CC2)NC(=O)N(Cc2ccc(F)cc2)C3=O)cc1	inconclusive: 50.1 µM [inhibitor, partial curve, poor fit]
O=C(NC1CC1)c1cc(-c2ccc(F)cc2)c2nncn2n1	inconclusive: 50.1 µM [inhibitor, partial curve, poor fit]
O=C(CC1CCCC1)N1CCOc2ccc(CN3CCc4ccccc4C3)cc2C1	inconclusive: 50.1 µM [inhibitor, partial curve, poor fit]
O=C(NC1CCCC1)c1cc(C2CC2)nc2onc(C3CCCNC3)c12 (centres undefined)	inactive
O=C(CCCc1ccccc1)N1CCC(Cc2noc(-c3ccccc3)n2)C1 (centres undefined)	inconclusive: 44.7 µM [inhibitor, partial curve, poor fit]
C#CCN(C)C(=O)C[C@@H]1CCNC[C@@H]1Cc1cc(COc2ccccc2)on1	inconclusive: 100 µM [inhibitor, partial curve]
O=C(C1CCCC1)N1Cc2ccccc2CC2(CCN(Cc3ccncc3)C2)C1 (centres undefined)	inconclusive: 79.4 µM [inhibitor, single point]
O=C(c1ccco1)N1CCC[C@H]1c1nc(-c2ccccc2)no1	inconclusive: 56.2 µM [inhibitor, partial curve, poor fit]
COc1ccccc1CC(=O)N1CCN(c2cc(-c3ccccc3)[nH]n2)CC1	inconclusive: 17.8 µM [inhibitor, full curve]
COC(=O)CNC(=O)c1nc(-c2cccc(C(F)(F)F)c2)c2ccccn12	inconclusive: 44.7 µM [inhibitor, partial curve, poor fit]
Cc1ccc2c(c1)C(C[C@H]1CN(C(=O)NC(C)C)CC[C@H]1CC(=O)O)=NCC2	inactive
CN(C)c1cc(=O)c2ccnc(-c3cccc(CO)c3)c2o1	inconclusive: 126 µM [inhibitor, single point]
Cc1nn(-c2ccccc2)c2c1C(C(C)C)N(C1CN(C(=O)c3ccccc3)C1)C2=O (centres undefined)	inconclusive: 50.1 µM [inhibitor, partial curve, poor fit]
Cc1ccc(OCc2nc(C3CCN(C(=O)c4ccco4)CC3)no2)cc1	inconclusive: 50.1 µM [inhibitor, partial curve, poor fit]
Cc1ccccc1C(=O)NC(C(=O)N1CCCCC1)C1CCN(C(=O)CC(C)(C)C)CC1 (centres undefined)	inconclusive: 56.2 µM [inhibitor, partial curve, poor fit]
O=C1NCc2ccccc2CC12CCN(Cc1ccccc1C(F)(F)F)C2 (centres undefined)	inconclusive: 44.7 µM [inhibitor, partial curve, poor fit]
O=C(c1ccc(-c2cccs2)cc1)N1CCC(N[S+](=O)([O-])c2ccccc2)CC1	inconclusive: 11.2 µM [inhibitor, full curve, poor fit]
Cc1nnc(-c2cc(-c3cccnc3)ccn2)n1-c1ccccc1	inconclusive: 100 µM [inhibitor, partial curve]

Structure (SMILES)	Potency
c1ccc(CN2CCC[C@H]2c2nc(-c3ccnc(N4CCOCC4)c3)no2)cc1	inconclusive: 89.1 µM [inhibitor, partial curve]
COc1cccc(NC(=O)N2CCCC3(C2)Nc2cccnc2NC3=NC2CCCC2)c1 (centres undefined)	inconclusive: 50.1 µM [inhibitor, partial curve, poor fit]
COc1ccccc1-c1cc(C(=O)NCCSC)nn2cccc12	inconclusive: 44.7 µM [inhibitor, partial curve, poor fit]
CC(C)CNC(=O)c1ccc2oc(-c3cccnc3)nc2c1	inactive
COc1ccc(CN2CCC3(C2)C(=NC2CCCC2)NC(=O)N3c2cccc(OC)c2)cc1 (centres undefined)	inactive
O=C(NCCc1ccccc1)[C@@H]1CCCN1c1nccc(Nc2ccccc2Cl)n1	inconclusive: 14.1 µM [inhibitor, full curve, poor fit]
COc1ccc(N2CCN(C(=O)c3ccc4c(c3)N(C)C3CCCCN3C4=O)CC2)cc1 (centres undefined)	inactive
Cc1ncncc1C(=O)N1CCOC(CC(c2ccccc2)c2ccccc2)C1 (centres undefined)	inconclusive: 39.8 µM [inhibitor, full curve, poor fit]
Cc1cccc(C(=O)N2CCC3(CC2)CCC(O)(CN(C)C)CC3)c1	inactive
O=C(NCc1ccncc1)C1c2ccccc2C(=O)N(C2CCCC2)C12CCCCC2 (centres undefined)	inconclusive: 56.2 µM [inhibitor, single point]
CC(=O)NCCNC(=O)[C@@H]1Cc2cn(Cc3c(C)noc3C)c3cccc(c23)[C@H](CC(C)C)N1	inactive
CCN1CCCN(C(=O)c2ccoc2)CC12CCOCC2	inactive
Cn1c(CNC(=O)C2(C)CCCCC(=O)N2)nc2ccccc21 (centres undefined)	active: 39.8 µM
CC(=O)N(C1CC1)C1CCOC2(CCN(C(=O)c3nccc4ccccc34)CC2)C1 (centres undefined)	inactive
COc1ccc(C2Cn3nnc(-c4noc(/C=C/c5ccco5)n4)c3CO2)cc1 (centres undefined)	inactive
CC1(c2ccccc2)N(Cc2ccccc2F)C(=O)OC12CCN(Cc1cccnc1N)CC2 (centres undefined)	inconclusive: 50.1 µM [inhibitor, partial curve, poor fit]
COCCn1cc(CN2CCN(c3cccc(OC)c3)CC2)ccc1=O	inconclusive: 44.7 µM [inhibitor, partial curve, poor fit]
Cc1nn(-c2ccc(C(C)C)cc2)c(C)c1[C@@H]1C=C[C@@H](NC(=O)NC(C)C)C1	active: 28.2 µM
Cc1nn2c(c1-c1ccccc1N1CCCC1)N(C(=O)C1CCOCC1)CCC2	inconclusive: 89.1 µM [inhibitor, partial curve, poor fit]
CC(Oc1cccc(Cl)c1)C(=O)N1CCN(c2cc(-c3cccs3)[nH]n2)CC1 (centres undefined)	inconclusive: 31.6 µM [inhibitor, partial curve, poor fit]
